Results reported in ChEMBL document CHEMBL1201862, “PubChem BioAssay data set” (2004).
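Each compound was tested at five concentrations against cells in 96-well plates for 48 hours. Abbreviation: GI50, concentration required for 50% inhibition of growth.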 The source made the active and inactive calls. Cut-off read from the data, not from the text of the source: active = GI50 up to about 1.1 µM and inactive = higher.

system: NCI-H322M; assay: NCI tumour cell line growth inhibition, 48 h

Compound	GI50
COc1ccc2c(c1C)C(=O)C(O)(CC=C(C)C)O2 (centres undefined)	inactive: > 100 µM
COc1cccc(/C=C2\CCCCCC2=O)c1	inactive: > 100 µM
CCCCCCc1cc2cc(C(=O)NCc3ccccc3)c(=N)oc2cc1O	inactive: > 100 µM
CC1=CCC2(C#N)CCC1C2O (centres undefined)	inactive: > 100 µM
Cc1n[nH]c(=O)c2c3c([nH]c12)-c1ccccc1C3	inactive: > 100 µM
COc1ccc(-c2cc(O)c3cc4c(cc3n2)OCO4)cc1	inactive: > 100 µM
OC1CCC(COC(c2ccccc2)(c2ccccc2)c2ccccc2)O1 (centres undefined)	inactive: 16.9 µM
CN1CCN(CCCN2c3ccccc3Sc3ccc(C(F)(F)F)cc32)CC1	inactive: 7.83 µM
NNC(=O)C(O)C(O)C(O)CO (centres undefined)	inactive: > 100 µM
Nc1ncnc2c1ncn2C1OC(CO)=CC1O (centres undefined)	inactive: > 37.5 µM
CCCC[C@@H]1CCN2C[C@@H](O)[C@@H](O)[C@@H]2[C@H]1O	inactive: > 100 µM
C=C1C(=O)OC2CC1CCC1(C)OC1CCC(C)=CCCC2(C)O (centres undefined)	inactive: 9.16 µM
COc1ccccc1N1C(=O)/C(=C\c2cccc(Oc3ccccc3)c2)SC1c1ccccc1 (centres undefined)	inactive: 52.5 µM
CCCCC1(N=[N+]=[N-])C(=O)c2cccc3c2N(CCC3)C1=O (centres undefined)	inactive: > 100 µM
C=C1C(=O)O[C@H]2[C@H]1[C@H](OC(=O)/C(C)=C\C)C[C@]1(CO1)[C@@H]1[C@H](OC(C)=O)C=C(C)[C@]21O [EUPAROTIN ACETATE]	inactive: > 72.3 µM
COc1cc(Br)c(CC2C3=C(CCN2C(=O)C2CCC2)CC2(CC3)OCCO2)cc1O (centres undefined)	inactive: 93.3 µM
CC1(c2nc3ccccc3[nH]2)CCC(C(N)=O)C(C)(C)O1 (centres undefined)	inactive: > 100 µM
FC(F)(F)c1ccc(C2SCc3nc4ccccc4n32)cc1 (centres undefined)	inactive: > 100 µM
C=C1CC(CC)(CCN2C(=O)c3ccccc3C2=O)OC1=O (centres undefined)	inactive: 28.8 µM
N/N=C(\N)SCCCCCCCCCCS/C(N)=N/N	inactive: 39.2 µM
CCOC(=O)CCC(NC(=O)c1ccc(Nc2nc3ccc(C(F)(F)F)cc3nc2-c2ccccc2)cc1)C(=O)OCC (centres undefined)	inactive: > 100 µM
O=C1Nc2ccc(Br)cc2/C1=N/NC(=S)Nc1ccc([N+](=O)[O-])cc1	inactive: 7.11 µM
COc1ccc(OC)c2nc3c(C(=O)NCCN(C)C)cccc3nc12	inactive: 3.05 µM
COc1cccc(/C(Cl)=C(\C=O)c2cccc(OC)c2)c1	inactive: 12.1 µM

Compound	GI50
C=C(COCO)C(C)=O	inactive: 43.6 µM
COc1ccc2c(-c3csc(-c4c[nH]c5ccccc45)n3)c[nH]c2c1	inactive: 7.55 µM
CCCCC1C=Cn2c(=O)oc3c(OC(C)C)c(OC(C)C)c(O)c1c32 (centres undefined)	inactive: 23.1 µM
O=C1C/C(=C\c2ccccc2)C(=O)c2ccccc2N1	inactive: 15.7 µM
COc1c(Br)cc(/C=C(\C#N)c2ccccn2)cc1Br	inactive: > 100 µM
N=c1c2ccccc2sc2nc3ccccc3n12	inactive: > 100 µM
CC(=O)/C(=N\O)C(=O)Nc1ccc(Cl)cc1Cl	inactive: > 100 µM
COC1CCC(OC2CC(C3(C)CCC4(CC(O)C(C)C(C(C)/C=C(\C)C(=O)C(C)CC(C)C(=O)O)O4)O3)OC3(OC(C4OC(O)(CO)C(C)CC4C)CC3C)C2C)OC1C (centres undefined)	active: 0.291 µM
Cn1cc(NC(=O)c2cc(NC(=O)CNC(=N)N)cn2C)cc1C(=O)NCCC(=N)N [NETROPSIN CHLORIDE]	inactive: > 100 µM
CC1(C)O[C@@H](CCl)C[C@H](C#N)O1	inactive: > 100 µM
CC1=C(C(=O)Nc2cc(F)c(F)cc2F)C(c2cccc([N+](=O)[O-])c2)C(C(=O)Nc2ccccc2C(F)(F)F)=C(C)N1 (centres undefined)	inactive: 24.8 µM
O=c1oc2ccccc2cc1-c1cn2ccccc2n1	inactive: 8.85 µM
NC(CCc1nc(-c2ccc(Cl)cc2)cs1)C(=O)O (centres undefined)	inactive: > 100 µM
C=C(Cl)c1c(OC)cccc1OCc1ccccc1	inactive: > 100 µM
COc1ccc2nc3cc([N+](=O)[O-])ccc3c(NNc3ccc([N+](=O)[O-])cc3)c2c1	inactive: 63.1 µM
CCc1c(OC(C)=O)c2c(NC3OCC(OC(C)=O)C(OC(C)=O)C3OC(C)=O)nc(SC)nc2oc1=O (centres undefined)	inactive: > 100 µM
COC1(OC)C=CC(=O)C=C1	inactive: 16.4 µM
CC1(C)N=C(N)N=C(N)N1CCCCc1ccccc1	active: 0.374 µM
CCNC(=O)Cc1nc2c(O)ncnc2n1C1OC(CO)C(O)C1O (centres undefined)	inactive: > 100 µM
C[C@@H]1CC[C@H]2[C@H](C)C(OC3O[C@@H]4O[C@@]5(C)CC[C@H]6[C@H](C)CC[C@@H]([C@@H]3C)[C@@]46O5)O[C@@H]3O[C@@]4(C)CC[C@@H]1[C@]32O4 (some centres undefined)	inactive: > 100 µM
CCOC(=O)/C(=C/Nc1c(C)n(C)n(-c2ccccc2)c1=O)C(C)=O	inactive: > 100 µM
c1cc(-c2cn3ccsc3n2)ccn1	inactive: > 100 µM
CCCCC(=O)OC[n+]1cccc(-c2c(COC(=O)NC(C)C)c(COC(=O)NC(C)C)c3n2CCC3)c1	inactive: > 76.9 µM
C/C=C/[C@@]1(OC(=O)c2ccccc2)C[C@@H]2CCCC[C@@H]21	inactive: 19.1 µM

Compound	GI50
CC1OCC2OC(C)OC(C3C4=C(CC(C)(C)CC4=O)OC4=C3C(=O)CC(C)(C)C4)C2O1 (centres undefined)	inactive: > 100 µM
CC1(O)C2(c3ccccc3)CCC[N+]1(C)CC2 (centres undefined)	inactive: > 100 µM
COC(=O)C(Cc1nc2ccccc2nc1O)C(=O)C(=O)Nc1ccc(OC)cc1[N+](=O)[O-] (centres undefined)	inactive: > 100 µM
NC(=O)N=C(N(Cc1ccccc1)Cc1ccccc1)N(Cc1ccccc1)Cc1ccccc1	inactive: 29.2 µM
c1coc(-c2nccc3c2[nH]c2ccccc23)c1	inactive: > 100 µM
Cc1cccc(C[C@@]2(SCc3ccccc3)C(C)(C)[C@@H]3CC[C@@]2(C)C3)n1	inactive: 23.2 µM
CC(C(=O)c1ccccc1)C(c1ccccc1)N1CCOCC1 (centres undefined)	inactive: > 100 µM
O=C(O)CCc1nc2c(n1Cc1ccccc1)C(=O)c1ccccc1C2=O	inactive: 61.9 µM
C/C=C/C=C\C(=O)C1c2cccc(O)c2C(=O)c2c(O)cc(C)cc21 (centres undefined)	inactive: 1.17 µM
CCOc1ccc(NC(=O)CC2Sc3ccccc3NC2=O)cc1 (centres undefined)	inactive: > 100 µM
CC(NNC(=O)c1cc[n+]([BH2-]C#N)cc1)c1ccc(Cl)c(Cl)c1 (centres undefined)	inactive: 32.1 µM
C=C(C)C1Cc2c(cc(OC)c3c(=O)c4cccc(O)c4oc23)O1 (centres undefined)	inactive: 36.1 µM
Oc1ccc(-c2c3ccccc3c(-c3ccc(OCCBr)cc3)c3ccccc23)cc1	inactive: 22.9 µM
COc1cc2c(cc1OC)C(SC)C(=O)N(Cc1cccc(OC)c1OC)CC2 (centres undefined)	inactive: 12.7 µM
CC1NC(=O)CC(c2ccccc2)N(N=O)C1c1ccccc1 (centres undefined)	inactive: 68.4 µM
COc1ccc(-c2nc(SCC(=O)NNC(=S)Nc3ccccc3)[nH]c2-c2ccc(OC)cc2)cc1	inactive: 32 µM
CCOC(=O)C(Cc1c(C=O)[nH]c2ccccc12)(NC(=O)c1ccccc1)C(=O)OCC	inactive: 14.3 µM
CC1=NN(c2cccc(Cl)c2)C2(C1=Cc1ccc(N(C)C)cc1)C(Cl)C(=O)N2c1nc2ccccc2s1 (centres undefined)	inactive: 59.8 µM
CC(=O)CCn1ncc(Cl)c(Cl)c1=O	inactive: 17.2 µM
O=C(CC/C(CC(=O)c1ccc(Cl)cc1)=N/O)Nc1ccc(Cl)c(Cl)c1	inactive: > 100 µM
Cc1cc2nc(N3C(=O)/C(=C/c4ccccc4S)N=C3c3ccccc3)sc2cc1C	inactive: 53.6 µM
Cn1c(=O)cc(NNc2ccccc2)[nH]c1=O	inactive: 50.4 µM
COc1ccc(-c2c(C3=NCCCN3)nnn2-c2ccccc2)cc1	inactive: > 100 µM
CCCCN(CC)C(=O)C(=O)C1C(=O)Nc2ccccc2[S+]1[O-] (centres undefined)	inactive: > 100 µM

Compound	GI50
Cc1c2cc[n+](C)cc2c(C)c2c1[nH]c1ccc(OCC(F)(F)F)cc12	inactive: 4.84 µM
CCN(CC)CCn1ncc2ccc3c(c(=O)c4cccnc4n3CCN(CC)CC)c21	active: 0.839 µM
COc1ccc(/N=N/C(=N\c2ccc(Cl)cc2)c2ccc(N(CCC#N)CCC#N)cc2)cc1	inactive: > 100 µM
O=C(O)CCC[C@]1(O)O[C@@]2(CCCC2=O)[C@]2(O)CCC[C@@]21O	inactive: > 100 µM
Nc1ccc(-c2nc3ccccc3s2)cc1CO	inactive: > 84.3 µM
COC(=O)c1cc2c(c(C(=O)OC)c1O)C(=O)C=CC2=O	inactive: > 100 µM
O=C(Nc1nc(C23CC4CC(CC(C4)C2)C3)cs1)c1cc2c(ccc3ccccc32)oc1=O	inactive: > 100 µM
CC(C)C1CC=NN1C(=O)OC(C)(C)C (centres undefined)	inactive: 81.1 µM
CC(O)C1(CNc2cc(Cl)nc(N)n2)CCC1 (centres undefined)	inactive: > 100 µM
O=C1C(Cl)N(c2ccccc2Cl)C1c1c[nH]c2ccccc12 (centres undefined)	inactive: > 100 µM
O=C(CCCN1CCC2(CC1)CC(=O)N(N1CCOCC1)C2=O)c1ccc(F)cc1	inactive: > 100 µM
CC(=O)OCC1OC(n2c3c(c(-c4ccc(C)cc4)c(C#N)c2=S)C(=O)CC(C)(C)C3)C(OC(C)=O)C(OC(C)=O)C1OC(C)=O (centres undefined)	inactive: > 100 µM
NC(=O)COc1ccccc1	inactive: > 100 µM
C=Cc1ccc(C)[n+](C[Si](C)(C)O[Si](C)(C)C)c1	inactive: > 100 µM
COc1ccc(-n2c(N)c(C#N)c(C#N)c2-c2cccc([N+](=O)[O-])c2)cc1	inactive: > 100 µM
O=C1O/C(=C\c2ccc(O)c(Br)c2)C(c2ccc(O)c(Cl)c2)=C1Br	inactive: 19.9 µM
O=C1C=CC(=O)C(CNc2ccc(C(=O)OC34CC5CC(CC(C5)C3)C4)cc2)=C1	inactive: 18.4 µM
O=[N+]([O-])c1cccc(C2SCc3nc4ccccc4n32)c1 (centres undefined)	inactive: > 100 µM
CC1=NN(c2nc(N)nc(/C(C#N)=C/c3cccn3-c3cc(Cl)cc(Cl)c3)n2)C(C)(C)C1	inactive: > 100 µM
C#CCn1c(=O)c2cccnc2n(CC#C)c1=O	inactive: > 100 µM
Cc1cc(Cl)ccc1NC(=O)C(=O)Cc1nc2ccccc2o1	inactive: > 100 µM
COC(=O)c1cc(C)ccc1C1CN=NC12Cc1c(C)cc(C)cc1C2=O (centres undefined)	inactive: 33 µM
